Reference: the supplement of paper PMC4604168 (melanoma cell lines)
Some of the results follow. Single values are uncertain, as repeats are few or missing.

Columns and labels:
Assay in all cases: cell count relative to DMSO control; melanoma cells; higher = more viable cells
Conditions in all cases: library dose: low library concentration; 72 h
[1] = test system: WM115
[2] = test system: WM1716
[3] = test system: WM1745
[4] = test system: WM3526
[5] = test system: WM3619
[6] = test system: WM451Lu
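Also: cell number obtained by counting DAPI-stained nuclei in high-throughput microscope images with image analysis software, screen run in 1,536-well plates.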

COc1ccc(C2=N[C@@H](c3ccc(Cl)cc3)[C@@H](c3ccc(Cl)cc3)N2C(=O)N2CCNC(=O)C2)c(OC(C)C)c1 [Nutlin-3] + CCCS(=O)(=O)Nc1ccc(F)c(C(=O)c2c[nH]c3ncc(Cl)cc23)c1F [PLX4720] (first compound 0.1 µM, partner dose 0.08 µM)
cell count [1]: 104%
cell count [2]: 110%
cell count [3]: 116%
cell count [4]: 99.5%
cell count [5]: 116%
cell count [6]: 107%

Cn1c(=O)n(-c2ccc(C(C)(C)C#N)cc2)c2c3cc(-c4cnc5ccccc5c4)ccc3ncc21 + O=C1NC(=O)/C(=C/c2ccc(-c3ccc(F)cc3O)o2)S1 [AS252424] (first compound 0.004 µM, partner dose 1 µM)
cell count [1]: 98.1%
cell count [2]: 86%
cell count [3]: 110%
cell count [4]: 91.3%
cell count [5]: 97.7%
cell count [6]: 115%

Cc1cn(-c2cc(NC(=O)c3ccc(C)c(Nc4nccc(-c5cccnc5)n4)c3)cc(C(F)(F)F)c2)cn1 [nilotinib] + COc1ccc2c(c1)CCC1C2CCC2(C)C(NCCCCCCN3C(=O)C=CC3=O)CCC12 [U73122] (first compound 0.2 µM, partner dose 0.4 µM)
cell count [1]: 96.3%
cell count [2]: 82.5%
cell count [3]: 77.2%
cell count [4]: 111%
cell count [5]: 122%
cell count [6]: 105%

COc1ccc(C2=N[C@@H](c3ccc(Cl)cc3)[C@@H](c3ccc(Cl)cc3)N2C(=O)N2CCNC(=O)C2)c(OC(C)C)c1 [Nutlin-3] + CCc1ccc(CCOc2ccc(CC3SC(=O)NC3=O)cc2)nc1 [pioglitazone] (first compound 0.1 µM, partner dose 2 µM)
cell count [1]: 85.5%
cell count [2]: 95.1%
cell count [3]: 114%
cell count [4]: 89.2%
cell count [5]: 114%
cell count [6]: 91.9%

Cc1cn(-c2cc(NC(=O)c3ccc(C)c(Nc4nccc(-c5cccnc5)n4)c3)cc(C(F)(F)F)c2)cn1 [nilotinib] + C[C@@H]1CCN(C(=O)CC#N)C[C@@H]1N(C)c1ncnc2[nH]ccc12 [CP690550] (first compound 0.2 µM, partner dose 1 µM)
cell count [1]: 109%
cell count [2]: 91.3%
cell count [3]: 95.6%
cell count [4]: 84.6%
cell count [5]: 103%
cell count [6]: 126%

Cc1cc(Nc2cc(N3CCN(C)CC3)nc(/C=C/c3ccccc3)n2)n[nH]1 + Nc1ccn([C@@H]2O[C@H](CO)[C@@H](O)C2(F)F)c(=O)n1 [gemcitabine] (first compound 0.04 µM, partner dose 0.0004 µM)
cell count [1]: 109%
cell count [2]: 113%
cell count [3]: 86.8%
cell count [4]: 100%
cell count [5]: 72.6%
cell count [6]: 109%

COc1ccc(C2=N[C@@H](c3ccc(Cl)cc3)[C@@H](c3ccc(Cl)cc3)N2C(=O)N2CCNC(=O)C2)c(OC(C)C)c1 [Nutlin-3] + O=C(CCCCCCC(=O)Nc1ccccc1)NO [vorinostat] (first compound 0.1 µM, partner dose 0.08 µM)
cell count [1]: 99.2%
cell count [2]: 91%
cell count [3]: 111%
cell count [4]: 101%
cell count [5]: 99.1%
cell count [6]: 81.1%

Cc1cn(-c2cc(NC(=O)c3ccc(C)c(Nc4nccc(-c5cccnc5)n4)c3)cc(C(F)(F)F)c2)cn1 [nilotinib] + CC(=O)O[C@@]12CO[C@@H]1C[C@H](O)[C@@]1(C)C(=O)[C@H](O)C3=C(C)[C@@H](OC(=O)[C@H](O)[C@@H](NC(=O)OC(C)(C)C)c4ccccc4)C[C@@](O)([C@@H](OC(=O)c4ccccc4)[C@H]21)C3(C)C [Docetaxel] (first compound 0.2 µM, partner dose 0.0001 µM)
cell count [1]: 76.8%
cell count [2]: 54.7%
cell count [3]: 59.5%
cell count [4]: 35.7%
cell count [5]: 64.7%
cell count [6]: 68.3%

CC(C)C[C@H](NC(=O)[C@H](Cc1ccccc1)NC(=O)c1cnccn1)B(O)O [Bortezomib] + O=C(Nc1cccc(Cl)c1)Nc1ncc(CCNc2ncnc3ccsc23)s1 [SNS314] (first compound 0.001 µM, partner dose 0.0008 µM)
cell count [1]: 74.5%
cell count [2]: 31.8%
cell count [3]: 59.8%
cell count [4]: 75.2%
cell count [5]: 33.1%
cell count [6]: 96.8%

Cc1cc(Nc2cc(N3CCN(C)CC3)nc(/C=C/c3ccccc3)n2)n[nH]1 + CN(NC(=O)CC(=O)NN(C)C(=S)c1ccccc1)C(=S)c1ccccc1 [STA4783] (first compound 0.04 µM, partner dose 0.006 µM)
cell count [1]: 78.5%
cell count [2]: 60.5%
cell count [3]: 49.8%
cell count [4]: 89.9%
cell count [5]: 73.9%
cell count [6]: 97.8%

Cn1c(=O)n(-c2ccc(C(C)(C)C#N)cc2)c2c3cc(-c4cnc5ccccc5c4)ccc3ncc21 + CCCCCCCCCCCC1=C(O)C(=O)C=C(O)C1=O [Embelin] (first compound 0.004 µM, partner dose 1.2 µM)
cell count [1]: 94.3%
cell count [2]: 108%
cell count [3]: 97.1%
cell count [4]: 82.2%
cell count [5]: 87.1%
cell count [6]: 94.6%

CC(C)C[C@H](NC(=O)[C@H](Cc1ccccc1)NC(=O)c1cnccn1)B(O)O [Bortezomib] + OCc1c[nH]c2ccccc12 [Indole-3-carbinol] (first compound 0.001 µM, partner dose 0.8 µM)
cell count [1]: 106%
cell count [2]: 28%
cell count [3]: 85.8%
cell count [4]: 96%
cell count [5]: 28%
cell count [6]: 71.9%
